The text below walks through data of publication PMC4336329 (PLoS ONE, 2015).

The structures appear in SMILES notation. Hit rate of the full screen: of about 310,000 compounds, about 2,200 (0.71%) showed an effect of 50% or more. Effects have a minus sign here. This is one part of the list.

Chain of human ether-à-go-go-related gene (hERG) potassium channel (Q12809 whole entry, looked up): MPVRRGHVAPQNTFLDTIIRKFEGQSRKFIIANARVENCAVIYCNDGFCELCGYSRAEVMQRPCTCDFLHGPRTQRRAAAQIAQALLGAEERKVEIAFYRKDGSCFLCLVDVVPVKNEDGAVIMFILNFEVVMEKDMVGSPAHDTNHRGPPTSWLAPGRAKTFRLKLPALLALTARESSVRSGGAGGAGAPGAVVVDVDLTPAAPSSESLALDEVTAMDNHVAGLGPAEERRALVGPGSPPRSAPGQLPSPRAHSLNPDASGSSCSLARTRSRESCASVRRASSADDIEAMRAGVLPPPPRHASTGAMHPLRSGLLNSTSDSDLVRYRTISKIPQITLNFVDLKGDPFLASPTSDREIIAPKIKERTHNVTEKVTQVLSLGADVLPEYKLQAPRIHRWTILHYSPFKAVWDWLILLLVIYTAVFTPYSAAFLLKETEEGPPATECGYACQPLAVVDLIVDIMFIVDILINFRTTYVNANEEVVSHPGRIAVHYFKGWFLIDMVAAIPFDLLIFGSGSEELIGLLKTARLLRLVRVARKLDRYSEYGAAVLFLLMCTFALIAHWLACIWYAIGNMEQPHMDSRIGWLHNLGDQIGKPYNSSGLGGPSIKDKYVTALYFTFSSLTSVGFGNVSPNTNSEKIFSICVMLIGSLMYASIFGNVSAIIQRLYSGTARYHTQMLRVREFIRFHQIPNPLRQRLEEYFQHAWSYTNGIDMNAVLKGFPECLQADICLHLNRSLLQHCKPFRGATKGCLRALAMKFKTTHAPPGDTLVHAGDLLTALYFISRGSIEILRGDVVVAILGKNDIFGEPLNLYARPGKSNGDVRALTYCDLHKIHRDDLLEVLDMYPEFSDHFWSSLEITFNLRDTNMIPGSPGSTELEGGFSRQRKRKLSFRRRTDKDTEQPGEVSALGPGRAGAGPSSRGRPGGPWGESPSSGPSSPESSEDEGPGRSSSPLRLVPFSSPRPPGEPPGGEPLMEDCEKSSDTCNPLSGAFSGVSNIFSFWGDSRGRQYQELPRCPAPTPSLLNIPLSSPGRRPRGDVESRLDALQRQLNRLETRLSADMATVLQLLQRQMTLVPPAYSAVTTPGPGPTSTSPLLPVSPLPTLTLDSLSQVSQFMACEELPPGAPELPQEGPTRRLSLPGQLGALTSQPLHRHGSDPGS

The assay has as its target human ether-à-go-go-related gene (hERG) potassium channel (human, UniProt Q12809). Kind of assay: primary screen, population patch clamp on CHO cells stably expressing hERG.
Consider `COC(=O)c1sc(S(=O)(=O)Nc2ccc3cn[nH]c3c2)c(C(=O)OC)c1C`, for which the “hERG current change (%, negative = inhibition) at 1uM” value turned out to be 11.8%.
For `COc1cccc(NC(=O)c2cccs2)c1` the value was 4.72%; for `CCC(=O)NC(/C=C/c1ccccc1)c1cc([N+](=O)[O-])c2cccnc2c1O` (stereo not shown), 10.8%; for `Cc1nccn1CC(O)COc1ccc(Cl)cc1Cl` (stereo not shown), -17.5%.
For `Cn1cc(CN2CCC(C(=O)Nc3ccc(Oc4ccccc4F)cc3)CC2)cn1` the value was -24.8%; for `CC(SCCc1ccccn1)C(=O)O` (stereo not shown), -14.5%; for `Cc1ccc(-c2n[nH]c(=O)c3ccccc23)cc1S(=O)(=O)Nc1ccccc1`, 5.85%.
For `CCC1(CC)NC(=O)N(CC(=O)OCC(=O)Nc2ccc(C(F)(F)F)cc2)C1=O` the value was 2.71%.
Regarding `COc1ccc(-c2cc(-c3ccccc3)nc3ncnn23)cc1`, the “hERG current change (%, negative = inhibition) at 1uM” value is -7.54%.
In the case of `CC(=O)N1CCC(=NNc2nc3ccccc3s2)CC1`, the “hERG current change (%, negative = inhibition) at 1uM” value is listed as 5.36%.
For `O=C(C1CCCCC1)N1CCC(c2nc3c(nnn3Cc3c(F)cccc3Cl)c(=O)[nH]2)CC1` the value was 4.1%; for `COc1ccc(OC)c(C(=O)NC(CC(N)=O)c2ccc(NCc3ccc(F)c(F)c3)c([N+](=O)[O-])c2)c1` (stereo not shown), 15.7%.
For `O=C1Nc2ccccc2S/C1=C/Nc1cccc(Cl)c1`, the “hERG current change (%, negative = inhibition) at 1uM” value is reported as -7.83%.
Then `O=C(Nc1cccc(N2CCCC2)c1)c1cccs1`, with 8.83%.
Then `Cc1ccc(C(=O)Nc2ccn(Cc3ccc(F)cc3)n2)o1`, with -4.51%.
Turning to `N#Cc1cccc(C(=O)OCC(=O)N2CCCc3ccccc32)c1`, the “hERG current change (%, negative = inhibition) at 1uM” value came to 14.3%.
With `C=CCn1c(C)nnc1SCC(=O)Nc1nc(C)c(C(=O)N(C)C)s1`, the “hERG current change (%, negative = inhibition) at 1uM” value is listed as 6.49%.
For `COc1ccc(NC(=O)C2CCN(S(=O)(=O)c3cccc4cccnc34)CC2)cc1` the value was 10.3%; for `FC(F)(F)c1cc(-c2ccco2)nc(-n2nc(C(F)(F)F)cc2C2CC2)n1`, 7.08%; for `COc1cc2c(cc1OC)C(c1ccc(Br)cc1)NCC2` (stereo not shown), 6.3%.
For `COc1ccc([N+](=O)[O-])cc1NC(=O)c1ccco1` the value was 5.63%; for `CC(=O)c1ccc(N2CCc3ccccc3C2)c([N+](=O)[O-])c1`, 5.96%.
Then `CCOC(=O)COc1ccc(S(=O)(=O)Nc2ccc3c(c2)OCO3)cc1`, with -1.15%.
For the compound `Nc1nc(SCC(=O)Nc2ccc(Cl)cn2)n[nH]1`, the “hERG current change (%, negative = inhibition) at 1uM” value is reported as 16.1%.
Consider `O=c1oc2cccnc2n1CCS(=O)(=O)c1ccc(F)cc1`, for which the “hERG current change (%, negative = inhibition) at 1uM” value is 5.75%.
Regarding `Cn1cc(CC(=O)N2CCN(c3ccc(Cl)cc3)CC2)c2ccccc21`, the “hERG current change (%, negative = inhibition) at 1uM” value is reported as -0.545%.
Regarding `Cc1nc2ccccn2c1-c1ccnc(=S)[nH]1`, the “hERG current change (%, negative = inhibition) at 1uM” value turned out to be 8.94%.
For `CC(=O)c1cccc(NC(=O)N2CCCc3ccccc32)c1` the value was -10.2%.
For `C=CCSC1=NN2CCS(=O)(=O)N=C2S1` the value was 11.5%.
For `O=C(CSc1nncs1)N1c2ccccc2Sc2ccccc21` the value was 6.52%.
As for `CSc1nc2cc(Oc3cccc(Cl)c3Cl)c(Cl)cc2[nH]1`, the “hERG current change (%, negative = inhibition) at 1uM” value is on record as 11.2%.
As for `CCOc1ccc(C(=O)/C=C/c2cc(OC)c(OC)c(OC)c2)cc1`, the “hERG current change (%, negative = inhibition) at 1uM” value turned out to be 0.469%.
Then `O=C1c2cccc3cccc(c23)C(=O)N1c1ccccn1`, with 4.02%; and `C/C(=N\NC(N)=O)c1c(F)cccc1F`, with 9.38%.
Then `CC(NC(=O)c1ccc(F)cc1)c1ccccc1` (stereo not shown), with 8.16%; and `CCc1ccc(C(=O)COC(=O)c2ccco2)cc1`, with 7.44%.
Consider `CCOC(=O)C1CCCN(Cc2ccc(OC)cc2OC)C1` (stereo not shown), for which the “hERG current change (%, negative = inhibition) at 1uM” value is recorded as -13.6%.
For `CC(C)Cn1c(SCc2nc3ccccc3c(=O)[nH]2)nc2ccccc2c1=O` the value was 1.85%.
Regarding `O=C(NC1CCCc2ccccc21)c1cccc(S(=O)(=O)N2CCOCC2)c1` (stereo not shown), the “hERG current change (%, negative = inhibition) at 1uM” value was 15.2%.
For `O=C1CCCN2N=C(SCC(=O)Nc3nccs3)SC2=N1`, the “hERG current change (%, negative = inhibition) at 1uM” value is recorded as 2.63%.
For the compound `Cc1nc2c(cc1C#N)C(=O)c1ccccc1-2`, the “hERG current change (%, negative = inhibition) at 1uM” value is recorded as -2.72%.
For `COCCn1c(=S)[nH]c2sc3c(c2c1=O)CCC(C)C3` (stereo not shown) the value was 15.4%; for `Cc1ccc(Nc2nc(/N=C/N(C)C)n[nH]2)cc1C`, 0.539%.
Then `CN(Cc1ncc[nH]1)C(=O)c1cc(COc2c(F)cccc2F)on1`, with 9.97%.
Regarding `Cc1occc1-c1nnc(SCC(=O)Nc2ccc(F)cc2)n1Cc1ccccc1`, the “hERG current change (%, negative = inhibition) at 1uM” value is -27.9%.
`Cc1ccc(CN2C(=O)CCC2C(=O)NCCCN2CCOCC2)cc1` (stereo not shown): the “hERG current change (%, negative = inhibition) at 1uM” value stood at 17.8%.
Turning to `Clc1ccc(Nc2ccc(Cl)nn2)cc1`, the “hERG current change (%, negative = inhibition) at 1uM” value is 12.7%.
Then `Cc1cc(C)cc(-n2c(O)c(C=Nc3ccc(N4CCOCC4)cc3)c(=O)[nH]c2=S)c1`, with 2.74%; and `CCOCCCNC(=O)CN1C(=O)COc2ccc(S(=O)(=O)N3CCC(C)CC3)cc21`, with 8.53%; and `CC1=NCCN1S(=O)(=O)c1cc(Cl)ccc1Cl`, with 5.43%.
Turning to `COc1ccc(CNc2ccc(-c3ccccc3OC)nn2)cc1`, the “hERG current change (%, negative = inhibition) at 1uM” value was 6.34%.
Then `CCOC(=O)c1ccccc1NC(=O)/C(C)=C/C(=O)O`, with 2.59%.
Then `Cn1c(SCC(=O)N2CCCCCC2)nc2c([nH]c3ccccc32)c1=O`, with 7.71%; and `COc1cccc(CN(c2ccc3c(c2)CCC3)S(=O)(=O)c2ccc(-n3cnnn3)c(OC)c2)c1`, with 18.8%; and `COc1ccccc1-c1cn[nH]c1-c1ccc(OCC(=O)NN)cc1O`, with 3.23%.
For `CC(C)N(C(C)C)S(=O)(=O)c1ccc(Cl)nc1` the value was 15.1%; for `COc1ccc(CCN(C)Cc2ccc(OC)c(OCc3ccccc3)c2)cc1OC`, -77%; for `CC(=O)C[C@H]1c2cc(F)ccc2S(=O)(=O)N1c1ccc(N(C)C)cc1`, 8.54%.
On to `CCNc1nc(NC(C)C)nc(N(n2cnnc2)S(=O)(=O)c2ccc(C)cc2)n1`, for which the “hERG current change (%, negative = inhibition) at 1uM” value stood at 1.58%.
For `COC(=O)/C(C#N)=C/c1c(N2CCN(C)CC2)nc2ccccn2c1=O`, the “hERG current change (%, negative = inhibition) at 1uM” value is 11.2%.
For the compound `CCCOC(=O)CCc1n[nH]c(=O)[nH]c1=O`, the “hERG current change (%, negative = inhibition) at 1uM” value was found to be 5.57%.
Then `CC(C)c1ccc(O)c(NC(=S)NC(=O)CCc2ccccc2)c1`, with 11.6%.
In the case of `O=C(C(c1ccccc1)c1ccccc1)N1CCN(c2ccccn2)CC1`, the “hERG current change (%, negative = inhibition) at 1uM” value was 12.2%.
Consider `CC(C)(CNC(=O)c1cccc(NS(=O)(=O)c2ccc(Br)cc2)c1)N1CCOCC1`, for which the “hERG current change (%, negative = inhibition) at 1uM” value came out at 5.76%.
For `COc1ccc(CCNC(=O)C(=O)NCC2CCCN2S(=O)(=O)c2cc(C)ccc2C)cc1` (stereo not shown), the “hERG current change (%, negative = inhibition) at 1uM” value worked out at 4.92%.
Consider `COc1cccc(-c2nc(CS(=O)(=O)CC(=O)NCCCN3C(C)CCCC3C)c(C)o2)c1` (stereo not shown), for which the “hERG current change (%, negative = inhibition) at 1uM” value was 8.41%.
Then `O=C(CSc1nnc(-c2ccncc2)n1Cc1ccco1)Nc1nccs1`, with 4.34%; and `CC(=O)Nc1ccc(Nc2cc(C(C)C)nc3c(-c4ccccc4)c(C)nn23)cc1`, with 13.2%.
For the compound `O=C(CSc1nnc(CCCN2C(=O)c3cccc4cccc(c34)C2=O)n1-c1ccccc1)N1CCCCC1`, the “hERG current change (%, negative = inhibition) at 1uM” value is listed as -11.6%.
As to `O=C(c1cc(-c2cccc(Cl)c2)on1)N1CCN(c2ccccc2)CC1`, the “hERG current change (%, negative = inhibition) at 1uM” value is 9.17%.
For `CC1CCN(S(=O)(=O)c2cccc(-c3cn4cc(Cl)ccc4n3)c2)CC1` the value was 14.5%; for `COc1ccc(OC)c(N2Cc3ccccc3C2)c1`, 10.7%; for `COc1ccc(C(=O)N2CCCN(C)CC2)c(OC)c1`, 11%.
As to `O=C(Nc1nc2cc3c(cc2s1)OCCO3)c1ccc([N+](=O)[O-])o1`, the “hERG current change (%, negative = inhibition) at 1uM” value is listed as 14.3%.
Then `O=C(N=C1SC2CS(=O)(=O)CC2N1c1ccc(F)cc1F)C1CC1` (stereo not shown), with 5.2%.
For `CCN1C(=O)C(C)S/C1=N\S(=O)(=O)c1ccc(Cl)s1` (stereo not shown) the value was 13.3%; for `Cc1cccc(N(CC(=O)NCCSCc2ccccc2)S(C)(=O)=O)c1C`, 7.74%; for `COc1cccc(-c2sc3ccc(OC)cc3c2C#CCCO)c1`, 12.5%.
Then `COc1ccccc1N1CCN(C2CCCN(C(=O)CC(F)(F)F)C2)CC1` (stereo not shown), with 14.5%.
As for `COCCCN1C(=O)c2ccc(C(=O)OCC(=O)NCc3ccccc3OC)cc2C1=O`, the “hERG current change (%, negative = inhibition) at 1uM” value amounted to 3.07%.
For `O=C(N/N=C/c1c(O)n(CCc2ccccc2)c(=O)[nH]c1=O)c1ccccc1` the value was 6.33%.
On to `COc1cccc(NS(=O)(=O)c2ccc(Br)s2)c1`, for which the “hERG current change (%, negative = inhibition) at 1uM” value stood at 11.8%.
Then `Cc1nc(NC(=O)CSc2nnc(-c3ccc4c(c3)OCO4)o2)c(Cl)cc1Cl`, with 10.5%; and `NC(=O)C1CCN(C(=O)c2cc3n(n2)C(C(F)(F)F)CC(c2ccco2)N3)CC1` (stereo not shown), with 15.2%; and `O=C(Nc1cccc(Cl)c1)Nc1ccccc1-n1ccnc1`, with -5.6%.
With `Cc1cc(C)c(-n2c(SCCS(=O)(=O)c3ccc(F)cc3)n[nH]c2=O)c(C)c1`, the “hERG current change (%, negative = inhibition) at 1uM” value turned out to be 13.1%.
`O=C1N(c2ccc(Cl)cc2)C(c2cccnc2)N2CCCN12` (stereo not shown): the “hERG current change (%, negative = inhibition) at 1uM” value amounted to 6.95%.
Then `CC(C)NCCOCCOc1ccc(Cl)cc1Br.O=C(O)C(=O)O`, with -10.4%; and `O=C(CCN1C(=O)c2ccccc2C1=O)NCc1ccncc1`, with 10.6%; and `CCC(C)Nc1nc(N)c([N+](=O)[O-])c(N2CCCCCC2)n1` (stereo not shown), with 12%.
With `Cn1c2ccc(F)cc2c2ncn(CC3CCCO3)c(=O)c21` (stereo not shown), the “hERG current change (%, negative = inhibition) at 1uM” value is 12%.
